Measured values as given in PubChem BioAssay AID1508624 (National Center for Advancing Translational Sciences (NCATS), 2021).
The campaign covered roughly 48,000 compounds. About 120 (0.25%) were called active. Not shown: some 4% with an inconclusive outcome. The call rests on the fitted dose curve; in most records, active means well fitted activation curve with a large enough effect; inconclusive means small, poorly fitted or top-dose-only effect, or another doubt; inactive means no such curve, though single readings can be large or run the other way. This is one part of the list.

Test: Primary qHTS for Identification of Small Molecule Activators of Huntingtin-Antisense Promoter Activity; further: nearly all actives have a fitted effect of over 55% in size
Details: HEK293 HTT-AS promoter firefly luciferase reporter, 24 h; series mostly up to 57.5 µM; activity change, positive = activation: at the top concentration
In short: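 HEK293 cells carrying firefly luciferase reporters were seeded at 2,500 per well in Opti-MEM and cultured for 24 h. They were then treated with compounds at up to 57.5 uM final for 24 h at 37 degrees C before Dual-Glo luminescence readout.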

Activity change, positive = activation, inactive:
CC(C)(C)c1cnc(CSc2cnc(NC(=O)C3CCNCC3)s2)o1 -43%, Cc1ccc(N(Cc2cccs2)C(=O)Nc2cccc(Cl)c2)cc1 -11.9%, Cc1c(Cl)cccc1NC(=O)NCc1c(-n2cccc2)sc2c1CCCC2 0%, Cc1oc2c(c1C(=O)Nc1ccccc1Br)C1=NCCN1C=N2 5.45%, COc1cccc(CNC(=O)c2sc3nc4n(c(=O)c3c2C)CCC4)c1 8.59%, O=C(NCCc1cccs1)c1ccc(Cn2c(SCc3ccccc3)nc3cccnc32)cc1 11%, CCOc1ccccc1NC(=O)Cn1cnc2c1c(=O)n(C)c(=O)n2C -15.4%, COc1ccc(N2CC3=C(C2=O)C(c2ccc(O)c(OC)c2)NC(=O)N3C)cc1 (stereo unspecified) -0.703%, CCOC(=O)c1ccccc1NC(=O)c1cc2c(s1)-c1c(C)cccc1OC2 -4.75%, O=C(Nc1nc2ccc(F)cc2s1)c1nc(SCc2ccccc2F)ncc1Cl 0%, O=C(CN1C(=O)COc2ccc(S(=O)(=O)N3CCOCC3)cc21)Nc1ccc(F)c(Cl)c1 -21.3%, Cc1c(Cl)cccc1NC(=O)C1CCCN(C(=O)c2cnn(-c3ccccc3)c2-n2cccc2)C1 (stereo unspecified) -42.6%, COc1cc(OC)c(N(C)C(=O)c2cn(C)c(=O)c3cc(OC)c(OC)cc23)cc1Cl -15.7%, O=C(NCCc1ccc(Cl)cc1)C(=O)NCC(c1ccc2c(c1)OCO2)N1CCOCC1 (stereo unspecified) 0.204%, CC(C)c1c(C(=O)Nc2ccccc2)c(-c2ccccc2)c(-c2ccc(F)cc2)n1CC[C@@H](O)C[C@@H](O)CC(=O)O -3.52%, O=C(Nc1cc(C(F)(F)F)ccc1Cl)c1cc(-c2cccs2)nc2ccccc12 18.6%, Cc1cc(C)c(S(=O)(=O)NCCc2sc(-c3cccnc3)nc2C)c(C)c1 -19.8%, Cc1cc(S(=O)(=O)Nc2cc3c(cc2Cl)n(C)c(=O)c(=O)n3C)ccc1F -20.3%, Cn1c(=O)c2cc(C(=O)N3CCN(c4cccc(C(F)(F)F)c4)CC3)sc2c2ccccc21 -14.8%, CON(C)C(=O)N1N=C(c2cc(F)ccc2F)S[C@]1(CCCN)c1ccccc1 -30.1%, CCOC(=O)c1cc(-c2ccc(OC)cc2)n(CCC(=O)NCc2ccccc2OC)c1C -18.7%, Cc1ccsc1CN(Cc1ccco1)C(=O)c1ccc(Cl)cc1 -20.1%, Cc1ccc(C)c(N2CCN(S(=O)(=O)c3ccc(-c4cc(C(F)(F)F)on4)s3)CC2)c1 -16.9%, Cc1cc(=O)c2c(O)c3c(O)cc(=O)c4c3c3c(cc(O)c1c23)C(C)(C)C=4O, CCOC(=O)C1=C(CS(=O)(=O)c2ccc(C(C)(C)C)cc2)NC(=O)NC1c1cccc(OC)c1 (stereo unspecified) -37.9%, Cc1cccc(NC(=O)CSc2nnc3[nH]c(=O)cc(C)n23)c1C -7.41%, COc1ccc(N2CCN(C(=O)c3cnc(SC)nc3C)CC2)cc1 1.1%, COc1ccc(-c2cc3c(=O)n(CC(=O)Nc4ccc(Br)c(C)c4)ccn3n2)cc1OC 13.6%, O=C(CSCc1ccc(F)cc1)N1CCc2c([nH]c3ccccc23)C1c1ccc(F)cc1 (stereo unspecified) -31.8%, O=C(CCn1c(=O)c2cccn2c2cccnc21)Nc1ccccc1Br -11.4%, Cc1nn(S(=O)(=O)c2ccc(F)cc2)c(C)c1S(=O)(=O)N1CCCCC1 -9.83%, Cc1c(C(=O)Nc2cccc(C(F)(F)F)c2)oc2ccc(S(=O)(=O)N3CCC4(CC3)OCCO4)cc12 -31%, CC(C)(C)C(=O)Nc1nnc2n1CCS2 -2.97%, COc1ccc(NC(=O)CSc2c3c(nc4ccccc24)CCC3)cc1Cl -23.6%, CCN[C@H]1CN(CCCOC)S(=O)(=O)c2sc(S(N)(=O)=O)cc21 -0.744%, Cc1ccc2c(c1)N(C(=O)CCC(=O)Nc1ccc(F)cc1F)CC(C)O2 (stereo unspecified) -11.4%, CCOc1ccccc1N(C)C(=O)c1cc(S(=O)(=O)NCCc2ccc(Cl)cc2)ccc1F -44.4%, CCOc1ccc(NC(=O)c2ccc3c(c2)nnn3C2CCCC2)cc1 -8.82%, CCN(CC)S(=O)(=O)c1ccc(NC(=O)c2ccc3c(=O)n4c(nc3c2)CCCCC4)cc1 -52%, Cc1ccccc1CNC(=O)CCc1cn(Cc2ccccc2C)c2ccccc12 -25.8%, CC(C)(C)c1ccc(C(=O)N2CCC(c3noc(-c4ccc(S(=O)(=O)N5CCCC5)cc4)n3)CC2)cc1 -20.5%, CCc1ccccc1NC(=O)CSc1nc(C)c(C(=O)Nc2ccccc2)c(-c2ccc(Cl)cc2)c1C#N -1.6%, Cc1ccc(NC(=O)C2CCN(S(=O)(=O)c3cccc4nonc34)CC2)c(Cl)c1 -14.4%, CCOC(=O)c1c(C)[nH]c(C)c1S(=O)(=O)N1CCC(C(=O)NCc2cccc(C)c2)CC1 -3.38%, O=C(Nc1ccc(-c2nc3ccccc3s2)c(O)c1)c1ccc(Br)cc1 12.5%, Cc1ccc(CN(C(=O)COc2ccc([N+](=O)[O-])cc2)c2ccccn2)cc1 -31.3%, CCN(CC)CCCNC(=O)c1cnc(SC)nc1-c1ccccc1 -10.9%, CCN(CC)CCCNC(=O)c1cn(C)c2ccc(S(=O)(=O)N(C)C3CCCCC3)cc2c1=O 11.4% [at 11.5 µM, percent change from vehicle, -100% = no light], CCOCCc1nn2c(=O)cc(COC(=O)CNC(=O)c3cccc(C)c3)nc2s1 2.5%, Cc1ccc2c(=O)cc(C(=O)Nc3nc4ccc(Cl)cc4s3)oc2c1C 2.64%, COc1cccc(-c2ncnn2-c2sc3c(c2C#N)CCCCC3)c1OC 12%, CCN(C(=O)CSc1nc2ncccc2[nH]1)c1ccc(C(C)C)cc1 -23.5%, O=C(COc1ccc(Cl)cc1)Nc1nnc(S(=O)(=O)N2CCc3ccccc32)s1 -24.6%, CCOc1ccc(NC(=O)c2cnc(N3CCCC3)nc2C)cc1 3.56%, COc1ccc(CNc2nc3c(-c4cccc(C)c4)nnn3c3ccccc23)cc1 -1.98%, Cc1nn(CC(=O)N2CCC(C)CC2)c(=O)c2cc3sccc3n12 -11%, CCOc1ccc(CCNC(=O)c2cn(C)c3ccc(S(=O)(=O)N4CCCCCC4)cc3c2=O)cc1OCC -7.44%, COc1ccccc1NC(=O)c1c(NCc2ccc(OC)c(OC)c2OC)sc2c1CCC2 -26.7%, CCOC(=O)c1c(C)[nH]c(C)c1S(=O)(=O)N(C)CC(=O)N1CCN(c2ccccc2)CC1 -6%, CC(C)c1ccc(NC(=O)Cn2cc(S(=O)(=O)N3CCN(c4ccccc4F)CC3)c3ccccc3c2=O)cc1 -9.41%, Cc1ccc(S(=O)(=O)c2nnn3c2nc(N2CCN(c4ccccc4F)CC2)c2cc(Cl)ccc23)cc1C 9.42%, COc1ccc(/C=C/C(=O)Nc2ccc3nc4c(c(Nc5ccccc5OC)c3c2)CCCC4)cc1 -94.2%, O=C(c1ccc2c(c1)N(Cc1cccc(F)c1)C(=O)c1ccccc1S2)N1CCOCC1 -14.4%, Cc1ccccc1CN1C(=O)c2ccccc2S(=O)c2ccc(C(=O)NC3CCC(C)CC3)cc21 (stereo unspecified) -15.3%, CC(=O)N1c2c(cc(Br)cc2S(=O)(=O)N2CCN(c3cc(C)ccc3C)CC2)CC1C (stereo unspecified) -24%, OC[C@H](Cc1ccccc1)Nc1nc(Oc2ccc3c(c2)CCC3)nc2c1ncn2Cc1ccc(-c2ccccc2)cc1 -28.3%, Cc1ccc(S(=O)(=O)c2nnn3c2nc(N2CCCC2)c2sccc23)cc1C -11.9%, CC1=C(C#N)C(NC(=O)c2ccccc2Cl)(C(F)(F)F)C(=O)N1 (stereo unspecified) 7.31%, CCc1ccc(NC(=O)c2sc3nc(C)c(Cl)c(C)c3c2NC(=O)c2ccccc2OC)cc1 -1.04%, COc1ccc(OC)c(NC(=O)C2=C(C)C(=O)OC23CCCCCC3)c1 -8.65%, CC(Oc1ccc(F)cc1)C(=O)N1CCC(c2nc3ccccc3s2)CC1 (stereo unspecified) -36.1%, Cn1ncc2c(N3CCN(c4cccc(Cl)c4)CC3)ncnc21 -20.3%, CCOC(=O)N1CCc2c(sc(NCc3sccc3C)c2C(=O)Nc2ccc(OC)cc2OC)C1 -86.2%, Cc1cc(C)cc(NC(=O)C(Cc2ccccc2)NS(=O)(=O)c2ccc3c(c2)c(=O)n(C)c(=O)n3C)c1 (stereo unspecified) -21.2%, CCOc1ccc(Oc2nc(NCC(C)C)nc(N3CCOCC3)n2)nn1 -2.16%, OC(Cn1cncn1)(Cn1cncn1)c1ccc(F)cc1F, Cc1cc(Cl)ccc1OCc1nc(-c2ccc(-n3cccc3)cc2)no1 -10.1% [at 11.5 µM, percent change from vehicle, -100% = no light], CCCCOC(=O)c1ccc(NC(=O)c2cc3c(=O)n4cccc(C)c4nc3s2)cc1 -4.68%, CCOc1ccc(N2CC(c3nc4ccccc4n3CCCOc3ccccc3)CC2=O)cc1 (stereo unspecified) -26.2%, Cc1c(C(=O)NCC(c2ccc(Cl)cc2)N2CCOCC2)oc2ccccc12 (stereo unspecified) -20.9%, CCCCN(C)CCNC(=O)c1c2c(nc3ccccc13)C(=O)N(C1CCCCC1)C2 -13.9%, CC(C)(C)OC(=O)N1CCC(c2c(C(=O)NCCN3CCc4ccccc4C3)cnn2-c2ccc(F)cc2F)CC1 -29.5%, Cc1ccc(CN2CCC(CNC(=O)Nc3ccc(Cl)cc3)C2)cc1 (stereo unspecified) -26.2%, Cc1ccc(NC(=O)CCn2c(=O)c3cccn3c3ccccc32)cc1C -26.9%, Cc1ccc(-n2c(=O)c3cccnc3n2CC(=O)Nc2ccc(Br)cc2)cc1C -21.2%, CCC(=O)N1CCc2cc(Br)cc(S(=O)(=O)CCC(=O)NCCc3cccc(C)c3)c21 -11.8%, COc1ccc(Cl)cc1N(C)C(=O)c1ccc2c(=O)n3c(nc2c1)CCCCC3 -12.5%, COc1ccc(NC(=O)Cn2c(=O)n(CCC(=O)NCc3ccccc3OC)c(=O)c3ccccc32)cc1Cl -13.4%, Cc1ccc(Cn2ccn(Cc3ccccc3F)c(=O)c2=O)cc1 6.62%, COc1cccc(CNC(=O)CCc2c(C)nc3c(c(C)nn3-c3ccc(C)c(C)c3)c2C)c1 -36%, Cc1nc2c(-c3ccccc3)c(C)nn2c(C)c1CCC(=O)N1CCN(c2ccc(F)cc2)CC1 -20.3%
